Some of the results follow. The energies were worked out here from pooled read counts, against the library average; single values are noisy.
Target: T1, Pho4 (S. cerevisiae) (UniProt P07270)
T1 sequence: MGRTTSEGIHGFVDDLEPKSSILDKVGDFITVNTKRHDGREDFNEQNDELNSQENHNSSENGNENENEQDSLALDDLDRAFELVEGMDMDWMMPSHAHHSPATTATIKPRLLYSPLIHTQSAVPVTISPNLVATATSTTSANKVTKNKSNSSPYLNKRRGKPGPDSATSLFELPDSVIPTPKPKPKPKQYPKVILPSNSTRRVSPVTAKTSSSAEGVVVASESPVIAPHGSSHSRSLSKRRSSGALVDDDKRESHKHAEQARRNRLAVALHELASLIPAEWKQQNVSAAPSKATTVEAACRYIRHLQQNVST
Experiment: relative binding free energy (BET-seq); higher = weaker binding
Details: reference: library average

Relative binding free energy, -0.08 kcal/mol:
GGCAGCACGTGGTGGC

Relative binding free energy, 0.2 kcal/mol:
GTGTACACGTGGAAGG
GTGGACACGTGAAGTA
TGGTTCACGTGGGCTC

Relative binding free energy, -0.27 kcal/mol:
TTGGCCACGTGGGGAA
TCGTGCACGTGGTATA

Relative binding free energy, 0.07 kcal/mol:
CTTTGCACGTGTATTG
TTTCGCACGTGACTGG
TATTACACGTGCGTTA
GTGCACACGTGTAGGT
TATTCCACGTGTTATA

Relative binding free energy, 0.17 kcal/mol:
ATGTACACGTGCTGTC
GGTCTCACGTGGTATA
TTTCTCACGTGTAAGG
TGTTTCACGTGGTATG

Relative binding free energy, 0.12 kcal/mol:
TTTAGCACGTGATTTA
ATTGGCACGTGATTTG
TTTCTCACGTGTCGGT
TATTCCACGTGGTGGC
GGAGTCACGTGGTATG
TCGGTCACGTGACGTT

Relative binding free energy, 0.32 kcal/mol:
TAATACACGTGAGTTA
ATTTTCACGTGGAATA
AGTTTCACGTGTGGCG

Relative binding free energy, 0.41 kcal/mol:
GGGTTCACGTGGTTAC

Relative binding free energy, 0.19 kcal/mol:
GGAGACACGTGAGGTA
GTTGTCACGTGTCTGC
TTCGTCACGTGTTGTC

Relative binding free energy, 0.24 kcal/mol:
AGTTTCACGTGGTATT
AAGTGCACGTGAAAGG

Relative binding free energy, -0.17 kcal/mol:
GTAGGCACGTGCACGG

Relative binding free energy, 0.22 kcal/mol:
ATACTCACGTGGTGAG
GTTGACACGTGTTTTT
TTAGGCACGTGAGCGC

Relative binding free energy, -0.13 kcal/mol:
GAATGCACGTGGGCTG
ATTGGCACGTGGCAGT
AGCAGCACGTGTTGAG
GGATACACGTGGTGCG
GGCGGCACGTGGTGTA

Relative binding free energy, -0.16 kcal/mol:
TTGGGCACGTGCGCTA

Relative binding free energy, -0.22 kcal/mol:
GGAGGCACGTGGGCGG
GCATGCACGTGGGGTG

Relative binding free energy, -0.24 kcal/mol:
ATGAGCACGTGGGACG
GCGGGCACGTGGGTCT

Relative binding free energy, 0.49 kcal/mol:
GTTTTCACGTGTTAAC

Relative binding free energy, 0.04 kcal/mol:
TCTGACACGTGATGTT
GTGGCCACGTGTAAGT
TTTGACACGTGTGAAG
TGACTCACGTGGTTTG
GCTTGCACGTGGTTGG
TCCGTCACGTGTTGTG
GTCGACACGTGCGGTG

Relative binding free energy, 0.03 kcal/mol:
ACCATCACGTGGGGGG
TGGTGCACGTGTATGA
TTTGACACGTGTGACG

Relative binding free energy, 0 kcal/mol:
TTATGCACGTGCCTTG
TAAGACACGTGTATGT
TTGGACACGTGGCGGT
GAGGACACGTGTGGTA
TATATCACGTGCTATT

Relative binding free energy, 0.05 kcal/mol:
GGCAGCACGTGTAGTT
TCGTTCACGTGGGCTT
ATAGGCACGTGAATGG
GTTAACACGTGGGAGA
GATTGCACGTGGCGTA
TGGGCCACGTGAGCGT

Relative binding free energy, -0.2 kcal/mol:
TAGCGCACGTGTAGTG

Relative binding free energy, 0.06 kcal/mol:
ATAGACACGTGACGGG
GTATGCACGTGGAAAG
AGTGTCACGTGAAAAG

Relative binding free energy, -0.02 kcal/mol:
GGAGGCACGTGTAGAA
AATTCCACGTGGGGGA
TATTGCACGTGGATTC
GCTGGCACGTGTTGTT

Relative binding free energy, 0.25 kcal/mol:
GAGGTCACGTGCGAGT
ATTGTCACGTGAGGCA
TTGTGCACGTGAAATG
AAAGTCACGTGGGAAA

Relative binding free energy, 0.36 kcal/mol:
TTATTCACGTGTCGGT

Relative binding free energy, 0.15 kcal/mol:
CGGGACACGTGTAGGC
TGAGGCACGTGAGTGA

Relative binding free energy, 0.1 kcal/mol:
TATATCACGTGGAGTA
CTTTACACGTGGCTGG
CGTTACACGTGTGGGA
CTGGTCACGTGCATGT

Relative binding free energy, 0.43 kcal/mol:
GTTTTCACGTGAAGCT

Relative binding free energy, -0.15 kcal/mol:
GCGGGCACGTGGTCAT
AGTGTCACGTGGCAGG
TGGGCCACGTGTTTAG
TAATGCACGTGGCGGT
GGGAGCACGTGGGTCT
TAAAGCACGTGGTGGC
ATTGGCACGTGGTTAG

Relative binding free energy, -0.04 kcal/mol:
TGGGGCACGTGGTATA
TGTTGCACGTGTTCTG
GGTGGCACGTGCTGGG
ATGTACACGTGGCATT

Relative binding free energy, -0.06 kcal/mol:
TTAGGCACGTGCTGAA
CGCGACACGTGGGCGG
GCTCGCACGTGGGGTC
GTAGGCACGTGCAGTA
TGGAGCACGTGGTTAT

Relative binding free energy, -0.14 kcal/mol:
TTGAACACGTGGTTCG

Relative binding free energy, -0.09 kcal/mol:
GTAGGCACGTGGAGGC
ATTGACACGTGGCTTG
GGGTGCACGTGCTTAT

Relative binding free energy, -0.11 kcal/mol:
TGGTCCACGTGGGGTG
CGTTCCACGTGGGTGT
GTTAGCACGTGCTGGG
AAGGTCACGTGGCCGG
GTTTGCACGTGCTGCT

Relative binding free energy, 0.27 kcal/mol:
GAGATCACGTGGGCGT
CTACTCACGTGGAGGT
TAGTGCACGTGAAATT
CTGTTCACGTGGTGGT
GTTATCACGTGGATCA
CATTTCACGTGTGGCA
AGTTTCACGTGATAAT

Relative binding free energy, -0.18 kcal/mol:
TGTAACACGTGCTTTG
GTTCGCACGTGGGGGC

Relative binding free energy, 0.38 kcal/mol:
TATTTCACGTGATAAG

Relative binding free energy, -0.05 kcal/mol:
TTCAGCACGTGGTGGA
TGTGCCACGTGGCAGG
ATTTACACGTGGGCTG

Relative binding free energy, 0.29 kcal/mol:
TGGTTCACGTGGAAAA
CTTTTCACGTGTCTGT
GGATTCACGTGTATCG

Relative binding free energy, -0.1 kcal/mol:
CTATACACGTGTTGTG
GGAGGCACGTGTTAGA
TGAAGCACGTGGAGGG

Relative binding free energy, -0.07 kcal/mol:
TAAAGCACGTGGTGAT
CAGGGCACGTGCGATG
AGATGCACGTGGAGGG
CGACGCACGTGTGTGG
GGTGCCACGTGGTGTA
AATCGCACGTGTTGTG

Relative binding free energy, 0.33 kcal/mol:
TTTTTCACGTGTTGAT
CATCTCACGTGAGGGT
AAAGCCACGTGAGTGG

Relative binding free energy, 0.37 kcal/mol:
CTGTTCACGTGGAGCG
TGCTGCACGTGAATTT

Relative binding free energy, -0.23 kcal/mol:
GTAAGCACGTGGGTTG

Relative binding free energy, 0.09 kcal/mol:
ATTGGCACGTGAATAA
ATTTCCACGTGGTTGG
TGAGTCACGTGGGAAC
AAGATCACGTGGGTTT
AGGGTCACGTGGCGTC
AGGGTCACGTGCTTGA
AATGTCACGTGTGGCG

Relative binding free energy, -0.19 kcal/mol:
AGGGGCACGTGGGGCG
ATTGGCACGTGCCGTG
CTTAACACGTGTTTGG
CGTGGCACGTGGCTGT
TTAGTCACGTGGGCAG

Relative binding free energy, 0.08 kcal/mol:
GGGGACACGTGGAGCT
GAAGACACGTGTGTTA
TGTTGCACGTGGATTT
AGTGGCACGTGATCTA
GTTAGCACGTGGAAGG
TCCTGCACGTGTTGGT

Relative binding free energy, -0.03 kcal/mol:
ATACGCACGTGATGTT
AGTAGCACGTGCAGTG
GGGTACACGTGGTAGA
ATATCCACGTGTATGG
TATAACACGTGTGTCT
CTGGGCACGTGTTTTT
TAGAACACGTGTGGGA

Relative binding free energy, -0.12 kcal/mol:
GGAGGCACGTGTACGG
AGTTCCACGTGGGTTA
ATTAGCACGTGTGCGG
GTAGACACGTGGGGAT
TGGCACACGTGGCTGG

Relative binding free energy, 0.18 kcal/mol:
ATGATCACGTGTTGGG
AGTATCACGTGGATGT
TTTTCCACGTGAGTGT
GTTAACACGTGATTAG
ATATTCACGTGTAGAG
ACATTCACGTGGTGGG
CAAGTCACGTGGAGTA
TTAATCACGTGATTAG
GGTAACACGTGGTACT

Relative binding free energy, 0.31 kcal/mol:
GTCTTCACGTGGGAAT
TGTTTCACGTGGAGAA

Relative binding free energy, 0.14 kcal/mol:
TGGGTCACGTGTGTAG
AATTTCACGTGGGTAC
TGTTACACGTGTGCGT
GGGTACACGTGTTCTT

Relative binding free energy, -0.01 kcal/mol:
ACTAGCACGTGTGTTT
AATGGCACGTGCGAGT
TCGAGCACGTGGAGTT
AAGAGCACGTGTTAAG
ACTATCACGTGGGTTA
AGGGGCACGTGTTGGC
GTCGACACGTGCGGGG
ATAAACACGTGTGGAG
GGAGACACGTGTTTTA
GAGAGCACGTGTAGTG

Relative binding free energy, 0.01 kcal/mol:
TCGATCACGTGTTTTG
GTTAGCACGTGCGGAG
TAGGACACGTGGTTGT
TTTTCCACGTGTAGTA
ACGGTCACGTGTTTGG
TGGGACACGTGCAGCG

Relative binding free energy, 0.48 kcal/mol:
GATTCCACGTGAGGTG

Relative binding free energy, 0.11 kcal/mol:
GGTGCCACGTGTTTTT
TTGGTCACGTGAGGAC
CTGGACACGTGGTTAG
CGGGTCACGTGGTAGG
AGAGGCACGTGTGGCC

Relative binding free energy, 0.21 kcal/mol:
TGTGCCACGTGATAAG
TACATCACGTGTTGTT
GGGAACACGTGATCGG
TAGGGCACGTGAGAGA
TTAATCACGTGTTATC

Relative binding free energy, 0.02 kcal/mol:
TGTATCACGTGGTCGC
AAAGTCACGTGTAAGG

Relative binding free energy, 0.26 kcal/mol:
GGCTTCACGTGGGAAT
GGGTTCACGTGCAGAG
TTGACCACGTGAAGTG

Relative binding free energy, 0.16 kcal/mol:
AGATACACGTGATTGG
TAGGGCACGTGTAATA

Relative binding free energy, 0.23 kcal/mol:
GGTATCACGTGAGGCA

Relative binding free energy, 0.13 kcal/mol:
TTAGTCACGTGCTGGG
ATTTGCACGTGATGGA
GTTGTCACGTGCTCAG

Relative binding free energy, -0.21 kcal/mol:
GAGCGCACGTGGGGTG
GTGGCCACGTGGCGTA

Relative binding free energy, 0.35 kcal/mol:
CGTTTCACGTGAACGT
AAGATCACGTGATTGG

Relative binding free energy, -0.28 kcal/mol:
TGTGCCACGTGCGGGT

Source: the BET-seq Pho4 binding data (Le et al. 2018)
